# Experimental data published in the supplement of paper PMC8728848.
# The list shows a part of the results.
# B1: GS7807E-bfa-538-23-538 (Bacteroides fragilis) (protein)
# chain: TDSFESFNTNEAGFDNDSKKQDFNYYGIPLGIIQQGIYFNYDWGSGKNWPFQTMQNLGADLFSGYVHDFNPFNEGKNNSTYYMMDGWNGSTWDNTYGYIMPEVQKSETINEKDNIGFFGITKILKVELMHRLSDLYGPIVYTQFGSKTGSTPDTQQEAYKAFFNDLDTGIAKIREYQKANPDIESFAKFDILMPQGKRTFSEWIRFANSLRLRLAVRIAMADSKLAVAEAQKALTDEEGLLEGNDEVVAVSTSSGYTNPFGEINKAWGEVFMNANMESLLVGYEDPRMEKYFDKATGSDATSLIDYKGTYKGIRQGTGFSHKNYNGHSKSTITQQTDAVLMTPAEVWFLRAEAALRGWSSESVKDCYEKGVKASFAQWGAAGAEAYLESDRKPSDYVDAFKAANNVKAVNTLTPKWDDAAGNEDKLGRIITQKWLAMFPEGGEAWAEQRRTGYPRLFPVLVNQSEGTVDTNLGPRRLNFFVGIKTTNPEQYTQLVNALGGIDNCGTRLWWDTGRNF
# Legend:
# Assay in all cases: glycan array binding signal (z-score within array); higher = stronger binding
# Conditions in all cases: glycan notation: IUPAC condensed, linker removed
# [1] = biological target: Fuc(a1-2)[Gal(a1-3)]Gal(b1-4)GlcNAc(b1-2)Man(a1-3)[Fuc(a1-2)[Gal(a1-3)]Gal(b1-4)GlcNAc(b1-2)Man(a1-6)]Man(b1-4)GlcNAc(b1-4)[Fuc(a1-6)]GlcNAc
# Outline: (§1)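 Glycan array binding is given as a within-array Z-score, which can be read as non-binding when negative. The arrays, 3228 of them, came from the Consortium for Functional Glycomics database and were retained only where the protein sequence was available. Z-scores were averaged across arrays of the same protein sequence at different concentrations or buffers and across linkers.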
# [2] = biological target: Fuc(a1-2)[Gal(a1-3)]Gal(b1-4)GlcNAc(b1-3)GalNAc
# Outline: as §1
# [3] = biological target: Fuc(a1-2)[Gal(a1-3)]Gal(b1-4)GlcNAc(b1-3)[Fuc(a1-2)[Gal(a1-3)]Gal(b1-4)GlcNAc(b1-6)]GalNAc
# Outline: as §1
# [4] = biological target: Fuc(a1-2)[Gal(a1-3)]Gal(b1-4)GlcNAc(b1-6)GalNAc
# Outline: as §1
# [5] = biological target: Fuc(a1-2)[Gal(a1-3)]Gal(b1-4)[Fuc(a1-3)]Glc
# Outline: as §1
# [6] = biological target: Fuc(a1-2)[Gal(a1-3)]Gal(b1-4)[Fuc(a1-3)]GlcNAc
# Outline: as §1
# [7] = biological target: Fuc(a1-2)[Gal(a1-3)]Gal(b1-4)[Fuc(a1-3)]GlcNAc(b1-3)GalNAc
# Outline: as §1
# [8] = biological target: Fuc(a1-2)[Gal(a1-4)]Gal(b1-4)GlcNAc
# Outline: as §1
# [9] = biological target: Fuc(a1-2)[GalNAc(a1-3)]Gal
# Outline: as §1
# [10] = biological target: Fuc(a1-2)[GalNAc(a1-3)]Gal(b1-3)GalNAc(a1-3)[Fuc(a1-2)]Gal(b1-4)GlcNAc
# Outline: as §1
# [11] = biological target: Fuc(a1-2)[GalNAc(a1-3)]Gal(b1-3)GalNAc(b1-3)Gal(a1-4)Gal(b1-4)Glc
# Outline: as §1
# [12] = biological target: Fuc(a1-2)[GalNAc(a1-3)]Gal(b1-3)GlcNAc
# Outline: as §1
# [13] = biological target: Fuc(a1-2)[GalNAc(a1-3)]Gal(b1-3)GlcNAc(b1-2)Man(a1-3)[Fuc(a1-2)[GalNAc(a1-3)]Gal(b1-3)GlcNAc(b1-2)Man(a1-6)]Man(b1-4)GlcNAc(b1-4)GlcNAc
# Outline: as §1
# [14] = biological target: Fuc(a1-2)[GalNAc(a1-3)]Gal(b1-3)GlcNAc(b1-2)Man(a1-3)[Fuc(a1-2)[GalNAc(a1-3)]Gal(b1-3)GlcNAc(b1-2)Man(a1-6)]Man(b1-4)GlcNAc(b1-4)[Fuc(a1-6)]GlcNAc
# Outline: as §1
# [15] = biological target: Fuc(a1-2)[GalNAc(a1-3)]Gal(b1-3)GlcNAc(b1-3)GalNAc
# Outline: as §1
# [16] = biological target: Fuc(a1-2)[GalNAc(a1-3)]Gal(b1-3)GlcNAc(b1-6)GalNAc
# Outline: as §1
# [17] = biological target: Fuc(a1-2)[GalNAc(a1-3)]Gal(b1-4)Glc
# Outline: as §1
# [18] = biological target: Fuc(a1-2)[GalNAc(a1-3)]Gal(b1-4)GlcNAc
# Outline: as §1
# [19] = biological target: Fuc(a1-2)[GalNAc(a1-3)]Gal(b1-4)GlcNAc(b1-2)Man
# Outline: as §1
# [20] = biological target: Fuc(a1-2)[GalNAc(a1-3)]Gal(b1-4)GlcNAc(b1-2)Man(a1-3)[Fuc(a1-2)[GalNAc(a1-3)]Gal(b1-4)GlcNAc(b1-2)Man(a1-6)]Man(b1-4)GlcNAc(b1-4)GlcNAc
# Outline: as §1
# [21] = biological target: Fuc(a1-2)[GalNAc(a1-3)]Gal(b1-4)GlcNAc(b1-2)Man(a1-3)[Fuc(a1-2)[GalNAc(a1-3)]Gal(b1-4)GlcNAc(b1-2)Man(a1-6)]Man(b1-4)GlcNAc(b1-4)[Fuc(a1-6)]GlcNAc
# Outline: as §1
# [22] = biological target: Fuc(a1-2)[GalNAc(a1-3)]Gal(b1-4)GlcNAc(b1-3)Gal(b1-4)GlcNAc
# Outline: as §1
# [23] = biological target: Fuc(a1-2)[GalNAc(a1-3)]Gal(b1-4)GlcNAc(b1-3)Gal(b1-4)GlcNAc(b1-3)Gal(b1-4)GlcNAc
# Outline: as §1
# [24] = biological target: Fuc(a1-2)[GalNAc(a1-3)]Gal(b1-4)GlcNAc(b1-3)GalNAc
# Outline: as §1
# [25] = biological target: Fuc(a1-2)[GalNAc(a1-3)]Gal(b1-4)GlcNAc(b1-3)[Fuc(a1-2)[GalNAc(a1-3)]Gal(b1-4)GlcNAc(b1-6)]GalNAc
# Outline: as §1
# [26] = biological target: Fuc(a1-2)[GalNAc(a1-3)]Gal(b1-4)GlcNAc(b1-6)GalNAc
# Outline: as §1
# [27] = biological target: Fuc(a1-2)[GalNAc(a1-3)]Gal(b1-4)[Fuc(a1-3)]GlcNAc
# Outline: as §1
# [28] = biological target: Fuc(a1-2)[GalNAc(a1-3)]Gal(b1-4)[Fuc(a1-3)]GlcNAc(b1-3)GalNAc
# Outline: as §1
# [29] = biological target: Fuc(a1-2)[GalNAc(a1-4)]Gal(b1-4)GlcNAc
# Outline: as §1
# [30] = biological target: Fuc(a1-2)[GalNAc(b1-3)]Gal
# Outline: as §1
# [31] = biological target: Fuc(a1-3)GlcNAc
# Outline: as §1
# [32] = biological target: Fuc(a1-3)[Gal(b1-4)]Glc6S
# Outline: as §1
# [33] = biological target: Fuc(a1-3)[Gal(b1-4)]GlcNAc
# Outline: as §1
# [34] = biological target: Fuc(a1-3)[Gal(b1-4)]GlcNAc(b1-2)Man
# Outline: as §1
# [35] = biological target: Fuc(a1-3)[Gal(b1-4)]GlcNAc(b1-2)Man(a1-3)[Fuc(a1-3)[Gal(b1-4)]GlcNAc(b1-2)Man(a1-6)]Man(b1-4)GlcNAc(b1-4)GlcNAc
# Outline: as §1
# [36] = biological target: Fuc(a1-3)[Gal(b1-4)]GlcNAc(b1-2)Man(a1-3)[Fuc(a1-3)[Gal(b1-4)]GlcNAc(b1-2)Man(a1-6)]Man(b1-4)GlcNAc(b1-4)[Fuc(a1-6)]GlcNAc
# Outline: as §1
# [37] = biological target: Fuc(a1-3)[Gal(b1-4)]GlcNAc(b1-3)Gal(b1-3)[Fuc(a1-4)]GlcNAc
# Outline: as §1
binder,measurement,setting,value
B1,glycan array binding signal (z-score),[1],-0.063
same,glycan array binding signal (z-score),[2],-0.457
same,glycan array binding signal (z-score),[3],-0.489
same,glycan array binding signal (z-score),[4],-0.155
same,glycan array binding signal (z-score),[5],-0.696
same,glycan array binding signal (z-score),[6],-0.625
same,glycan array binding signal (z-score),[7],-0.433
same,glycan array binding signal (z-score),[8],1.09
same,glycan array binding signal (z-score),[9],-0.468
same,glycan array binding signal (z-score),[10],-0.615
same,glycan array binding signal (z-score),[11],-0.632
same,glycan array binding signal (z-score),[12],-0.176
same,glycan array binding signal (z-score),[13],-0.293
same,glycan array binding signal (z-score),[14],-0.587
same,glycan array binding signal (z-score),[15],-0.382
same,glycan array binding signal (z-score),[16],-0.322
same,glycan array binding signal (z-score),[17],-0.66
same,glycan array binding signal (z-score),[18],-0.634
same,glycan array binding signal (z-score),[19],-0.618
same,glycan array binding signal (z-score),[20],0.771
same,glycan array binding signal (z-score),[21],-0.4
same,glycan array binding signal (z-score),[22],-0.377
same,glycan array binding signal (z-score),[23],0.104
same,glycan array binding signal (z-score),[24],-0.681
same,glycan array binding signal (z-score),[25],1.77
same,glycan array binding signal (z-score),[26],-0.685
same,glycan array binding signal (z-score),[27],1.45
same,glycan array binding signal (z-score),[28],0.598
same,glycan array binding signal (z-score),[29],0.259
same,glycan array binding signal (z-score),[30],0.211
same,glycan array binding signal (z-score),[31],-0.691
same,glycan array binding signal (z-score),[32],1.45
same,glycan array binding signal (z-score),[33],-0.535
same,glycan array binding signal (z-score),[34],-0.136
same,glycan array binding signal (z-score),[35],-0.169
same,glycan array binding signal (z-score),[36],0.877
same,glycan array binding signal (z-score),[37],-0.664
